The source gives no read counts; variants with many changes may rest on few reads.
B1: LINE1-mini (parent)
chain: GGCAGAGCUCAACACAGCGUGGCAAAGUGGCUGUGGCUAGACUGCC

Variants of: B1
Test: self-cleavage, relative activity (ratio to wild type); higher = more cleavage; in vitro, sequencing; the parent is a self-cleaving ribozyme

Row | Variant | self-cleavage
1 | GGCAGACCUCAACUCAGCGUGACAAACUGGCUGUGGCUACACUGCC [G7C A14U G22A G27C G40C] | 0.03
2 | GGCAGAGCUCAACACAGUGUGGCGAAGUAGCUGUGGCUAGACUGCC [C18U A24G G29A] | 2.98
3 | AGCAGAGCUCUACACAGCGUCGCAAAGUGGCUGUGGAUAAACUGCC [G1A A11U G21C C37A G40A] | 0.01
4 | GGAAGAGCUCAUUACAGCGUGGCAAAGUGGCUGUGGCUAGACUGCC [C3A A12U C13U] | 0.82
5 | GGCAGAGCGCAACACAGCAUGGCAAAGUCGCUGUGGCGAGACUGCC [U9G G19A G29C U38G] | 0
6 | GGCAGAGCUCAACACAGCGUGGAAAAGUGGUUGUGGCUAAACUGCC [C23A C31U G40A] | 0.25
7 | GGCAGAGCUCAACACAGCGUGUCAAAGUGUCUGAGGAUAGACUGCC [G22U G30U U34A C37A] | 0.02
8 | GGCAGAGCUAAACACAGCGCUGCAAAGUGGCUGUGGCUAGACUGAC [C10A U20C G21U C45A] | 0.02
9 | GGCAUAGCUCAACACAGCGUGGAAAAGUGGCUACGGCUAGACUGCC [G5U C23A G33A U34C] | 0.02
10 | GGCAGAGCUCAACACAGCUUGGCAAAGGUGCUGUGGAUAGACUGCC [G19U U28G G29U C37A] | 0.05
11 | GGCAAAGCUUGCCACAGCGUGGCAAUGUGGCUGUGGCUAGACUGCC [G5A C10U A11G A12C A26U] | 0.04
12 | GGCAGAGCUCAAUCCAGCGUGGCAAAGUGGCUGUGACUAGACUGCC [C13U A14C G36A] | 0.49
13 | GGCAGAGCUCAACAGAGCGUGGCUAAGUGGCAGCGGCUAGACUGCC [C15G A24U U32A U34C] | 0.02
14 | GGCAGAGUACAACAGAGCGUGGCAAAGUGGUUGUGGUUAGACCGCC [C8U U9A C15G C31U C37U U43C] | 0.12
15 | GGAAGAGCUGAACACAGCGUGGCAAAGUGGAUGUGGCGUGACUGCC [C3A C10G C31A U38G A39U] | 0.02
16 | GGCCGAGCUCUACACAGCGUGGGAAAGUGGCUGUGGUUAGACUGCC [A4C A11U C23G C37U] | 0.01
17 | GUAAGAGCUCAACGCAGCGUGGCAAAGUGGCUGUGGCUAGACUGCC [G2U C3A A14G] | 0.86
18 | CGCAGAGCUCAACAGAGCGGGGCAAAGUGGCUGUGGCUAGACUGCC [G1C C15G U20G] | 0.02
19 | GGCAGAGCUCAACACAGCGUGGCAAAUCGGCUGUGGCAAGACUGCC [G27U U28C U38A] | 0.12

Row | Variant | self-cleavage
20 | GCAAGAGCUCAAAACAGCGUGGCGAAGUCGCUGUGGCUAGACUGCC [G2C C3A C13A A24G G29C] | 0.04
21 | GGCAGAGCUCAACACAGCGUGGCGAAGUGGCAGUGGCUACACUGCC [A24G U32A G40C] | 0.02
22 | GGCAGAGCUCAACACAGCGUUGCAAAGUGGGUGUGGCUAGUCUGCC [G21U C31G A41U] | 0.07
23 | GGCAGAGCUCAACAUAGCGCGGCAACGUGGCUUUGGCUAGACUGCC [C15U U20C A26C G33U] | 0.36
24 | GGCAGAUCUCAACACAGCGUGGCGAAGUUGCCGUGGCUAGACUGCC [G7U A24G G29U U32C] | 0.07
25 | GGCAGAGGCCAACACAGCGUAGCAAAGUGGCUGUGGCUAGACUGCC [C8G U9C G21A] | 0.05
26 | GGCAGAGCUCAACACAGGGUGGCUAAGUGGCUGUGGCUUGACUGCC [C18G A24U A39U] | 0.1
27 | GGAAGUGCUCAACACAGCGUCGCAAAUUGGCUGUGGCUUGACUGCC [C3A A6U G21C G27U A39U] | 0.28
28 | GGCAUAGCCCAACAAAGCGUGACAAAGUGGCUGUGGCUAGACUGCC [G5U U9C C15A G22A] | 0.03
29 | GGCAGAGCUCAACACAGCGUUUCAAAGUGGCUGUGGCUAUACUGCC [G21U G22U G40U] | 0.09
30 | GGCUAAGCUCAACACAGAGUGGCAAACUGGCUGUGGCUAGACUGUC [A4U G5A C18A G27C C45U] | 0.02
31 | GGCAGAGCUCAACACAGCGUGGCAAAGUGUCAAUGGCUAGAGUGCC [G30U U32A G33A C42G] | 0.12
32 | GGUAGAGCUCAACACAGCGUGGCAAAGUGGCUGUGGCUAAACUACC [C3U G40A G44A] | 0.43
33 | GGCAGAGCUCAUCACACCGUGGCAAAGUGGCUGUGGCUACACUGCA [A12U G17C G40C C46A] | 0.01
34 | GGCAGAGCUCGGCACAACGUGGCAAGGUGGCUGUGGCUAGACUGCC [A11G A12G G17A A26G] | 0.01
35 | GGCAGAGCUCAACACAGAAUGGCAAAGUGGCUGUGGUUACACUGCC [C18A G19A C37U G40C] | 0.1
36 | GGCAGAGCUCAACACAGCGUGGAAAAGUGGCUGUAAGUGGACUGCC [C23A G35A G36A C37G A39G] | 0.09
37 | GGCAGAGCUCAACACAGGGUGGCAAAGUGGUUGUGGCUAUUCUGCC [C18G C31U G40U A41U] | 0
38 | GGCAGAGCGCAACGCAGCGAGCGAAAGUGGCUAUGGGUAGACUGCC [U9G A14G U20A G22C C23G G33A C37G] | 0.01

Row | Variant | self-cleavage
39 | GGCAGAGCGCAACACAGCGUGACGAGGUGGCUGUAGCGAGACUGCC [U9G G22A A24G A26G G35A U38G] | 0.01
40 | GGCAGAGCUCAACAGAGGGUGGCAAAGUGGUUGUGGCUAGAAUGCC [C15G C18G C31U C42A] | 0
41 | GGCAGCGCUCAACACAGCGUGACAAAGUGGCUGUGGCUGGACUUCC [A6C G22A A39G G44U] | 0.06
42 | GUCAGAGCCCAACAAAGCGUUGCAAAGUGGCUGUGGCUAUACUGCC [G2U U9C C15A G21U G40U] | 0.04
43 | GGCAGAGAUAAACACAGCGUGGCAAAGUGGAUGUGGCUAGACUGCU [C8A C10A C31A C46U] | 0.02
44 | GGCAGAGCUCAACACAGCGUGGCAAAGUGGCUGAGGCGAGGCUGCC [U34A U38G A41G] | 0.06
45 | GGCAGAGCUCAACACACCGUAACAAAGUGGCUGUGGCUAGACUGCC [G17C G21A G22A] | 0.05
46 | GGCAGAGCUCAACACAGCGUGGCAAAGUGGCUGUGGCUAGUCCGCG [A41U U43C C46G] | 0
47 | GUCGGAGCUCAACACAGCGUGGCAAAGGGGCUGCGGCUAGACUGCC [G2U A4G U28G U34C] | 0.02
48 | GGUAGAUGUCUAUACAGCGUGGCAAAGUGGCUGUGGCUAGACUGCC [C3U G7U C8G A11U C13U] | 0.17
49 | UGGAGAGCUAAACACAGCGUGGCAAAGUUCUUGUGGCUAAUCUGUC [G1U C3G C10A G29U G30C C31U G40A A41U C45U] | 0.01
50 | GGCAGAGCUCAACACAACGUGGCUAAGUGGCUGAGGCUAGACUGCC [G17A A24U U34A] | 0.03
51 | GGCAGAGCAUAACACAUCGUGGAAAAUUGUCUGUGGCUAGACUGCC [U9A C10U G17U C23A G27U G30U] | 0.06
52 | GGAAGACCUCAACACAGCGUGGCAAAGUGGAUGUCGCUAGACUGCU [C3A G7C C31A G35C C46U] | 0.1
53 | GGCCGAGCUCAACACAGCGUGGCAAAGUGGCUGUGGCUAGAGUUCC [A4C C42G G44U] | 0.04
54 | AGAAGAGCUCAACACAGCGUGGCAAAGUGGCUGUGGCUGGACCGGC [G1A C3A A39G U43C C45G] | 1.16
55 | GGCAGAGCUCUACACAGCGUGGCAAAGUGGCUGUGGCAAGACUCCC [A11U U38A G44C] | 0
56 | GGCAGCUCUCUACACAGCUUGGCAAAGUGGCUGUGGCUAGACUGCC [A6C G7U A11U G19U] | 0.01
